Experimental data: PubChem BioAssay AID1508624 (National Center for Advancing Translational Sciences (NCATS), 2021)
Hit rate of the full screen: of about 48,000 compounds, about 120 (0.25%) were called active. Another 4% or so got no clear call; they are omitted. The call rests on the fitted dose curve; in most records, active means well fitted activation curve with a large enough effect; inconclusive means small, poorly fitted or top-dose-only effect, or another doubt; inactive means no such curve, though single readings can be large or run the other way. The list shows a part of the results.

experiment: Primary qHTS for Identification of Small Molecule Activators of Huntingtin-Antisense Promoter Activity; details: HEK293 HTT-AS promoter firefly luciferase reporter, 24 h; series mostly up to 57.5 µM; activity change, positive = activation: at the top concentration; further: nearly all actives have a fitted effect of over 55% in size
Outline: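 Luminescence was read after Dual-Glo reagent and a 10 min room-temperature incubation. Values were normalized to vehicle (0% activity) and zero RLU (-100% activity). Reporter HEK293 cells had been exposed to compounds (up to 57.5 uM final) for 24 h.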

Activity change, positive = activation, inactive:
O=C(Cn1ncc2c1-c1ccccc1OC2)N1CCN(c2ccccc2F)CC1 -24.8%
COc1ccccc1CNC(=O)C1CCCN(S(=O)(=O)c2ccc3c(c2)CCCN3C(C)=O)C1 (stereo unspecified) -3.78%
CCc1nn2c(=O)cc(COC(=O)c3cccc(NC(=O)c4ccccc4Cl)c3)nc2s1 14.7%
CS(=O)(=O)OCCCCOS(C)(=O)=O
CCc1ccc2c(c1)c(=O)c(S(=O)(=O)c1ccc(F)cc1)cn2CC(=O)Nc1ccc(C)cc1C -21.6%
Cc1ccc(CNC(=O)C2CCCN(S(=O)(=O)c3cccc4nsnc34)C2)cc1 (stereo unspecified) -13.9%
CCCn1ccc2c(OCC(=O)NCc3ccc(C)cc3)cccc2c1=O -5.08%
CCN(CCCNC(=O)c1cc2c(=O)n(C)c3ccccc3c2s1)Cc1ccccc1 0.534%
Cc1cccc(NC(=O)c2ccc(N(Cc3ccccc3)S(C)(=O)=O)cc2)c1 13.9%
COc1ccc(CNC(=O)c2cnc3sc(N4CCCC4)nn3c2=O)cc1OC -26.7%
Cc1ccc2c(c1)C(c1ccc(F)cc1)N(C(=O)COc1ccc(Cl)cc1Cl)CC(=O)N2 (stereo unspecified) -29.4%
CN1CCC[C@H]1CCO[C@](C)(c1ccccc1)c1ccc(Cl)cc1 -16.5%
Cc1cc2ncn(CCCCOc3ccccc3)c2cc1C -15.8%
CSc1cccc(Nc2nc3c(S(=O)(=O)c4ccccc4)nnn3c3ccc(Cl)cc23)c1 4.16%
O=C(Cn1ncc2ccc(Cl)cc21)NCc1ccc(F)cc1 6.61%
Cc1ccc(C)c(NC(=O)CSc2ncc(S(=O)(=O)c3ccc(C)c(Cl)c3)c(=O)[nH]2)c1 -4.52%
OCc1c[nH]c2ccccc12 -8.82% [at 116 µM, percent change from vehicle, -100% = no light]
O=C(c1ccc2c(c1)N(Cc1ccc(F)cc1)C(=O)c1ccccc1S2=O)N1CCC(Cc2ccccc2)CC1 (stereo unspecified) -35%
COCCNCCCn1c(C(=O)CF)c(-c2ccc(C)cc2)c2c(N)ncnc21 -11.1%
COc1ccc(Cn2c(SCc3ccc(C(=O)NC(C)C)cc3)nc3cccnc32)cc1 -11.3%
CC1(C)CC(O)CC(C)(C)N1[O] -7.53%
CCc1ccc(CNC(=O)c2ccc(NC(=O)N3CCCCc4ccccc43)cc2)cc1 -17.8%
COc1ccccc1NC(=O)c1cccc(S(=O)(=O)N2CCCCCC2)c1 -21.2%
Cc1c(Cl)cccc1NC(=O)Nc1nnc(N2CCCCCC2)s1 0%
CC(=O)NCc1c(I)c(NC(C)=O)c(I)c(C(=O)O)c1I 0.281%
COc1ccc(N2CCN(C(=O)c3cn(CC(C)C)c(=O)c4c3c3ccccc3n4C)CC2)cc1 -13.3%
CC(C)(C)C1CCc2c(sc(NC(=O)Cn3nnc(-c4ccccc4F)n3)c2C#N)C1 (stereo unspecified) 8.06%
C[C@H](NCc1ccc2c(c1)nc(NC(=O)c1ccc(-c3cn[nH]c3)s1)n2CCc1ccccc1)C(C)(C)C -42.8%
O=C(Cn1c(=O)c2cccn2c2ccccc21)Nc1cc(F)ccc1F -14.4%
CCOc1ccc(N(C(=O)Cn2nnc3ccccc32)C(C(=O)NCc2ccccc2)c2ccc(OC)cc2)cc1 (stereo unspecified) -9.34%
CCOC(=O)c1cc(-c2ccccc2)n(-c2cccc(C(=O)Nc3ccc(OC)cc3)c2)c1C -31.6%
COc1ccc(-c2[nH]ncc2C(=O)NCc2ccccc2C)cc1 -10.4%
CC(=O)N1CCCc2cc(S(=O)(=O)N3CCC(C(=O)NCc4ccc(C)cc4)CC3)ccc21 -14.8%
COC(=O)c1ccccc1NC(=O)Cn1c(=O)n(-c2cccc(OC)c2)c(=O)c2c(C)c(C(=O)N(C)C)sc21 1.81%
Cc1onc(-c2ccccc2Cl)c1C(=O)Oc1cc(F)cc(F)c1 -11.5%
CCC(C(=O)NCCc1ccc(SC)cc1)n1nc(C)c2sc3ccccc3c2c1=O (stereo unspecified) -25.4%
Cc1ccc(CCNC(=O)Cn2nc(-c3ccc(C)cc3)ccc2=O)cc1 -17.9%
CCN(CC)CCNC(=O)c1cn(CC)c2ccc(S(=O)(=O)N3CCOCC3)cc2c1=O -4.78%
CC(=O)Nc1cccc(NC(=O)C(=O)NCCc2sc(-c3ccccc3)nc2C)c1 -10.5%
COc1ccc(OCC(=O)OCc2cc(=O)n3nc(C4CCCCC4)sc3n2)cc1 6.43%
O=C(Cn1cc(S(=O)(=O)Cc2cccc(Cl)c2)c2ccccc21)NCCc1ccccc1 -12.8%
Clc1cccc(-n2ncc3c(N4CCCCC4)ncnc32)c1 -50%
Cc1ccc(NC(=O)/C(C#N)=C/c2ccc(C(C)C)cc2)cc1C -10.8%
CCN(c1cccc(C)c1)S(=O)(=O)c1ccc2[nH]cc(C(=O)NCCCOC)c(=O)c2c1 -28.8%
CC(=O)Nc1nonc1-c1nnc(SCC(=O)N(C)c2ccccc2)n1C -19.2%
COc1ccc(CNC(=O)C(=O)Nc2ccc(OC)cc2OC)cc1 0.343%
Cc1nnc(C(C)C)n1C1C[C@H]2CC[C@@H](C1)N2CC[C@H](NC(=O)C1CCC(F)(F)CC1)c1ccccc1 (stereo partly specified) -7.17%
CCOC(=O)c1cnc2c(C)c(Cl)ccc2c1NCCc1ccccc1 -25.3%
CCC1CN(C(=O)N2CCC(C(=O)NCc3cccc(C)c3)CC2)c2ccccc2O1 (stereo unspecified) -32.4%
O=C(Cn1c(=O)nc(-c2ccccc2F)c2cc(Cl)ccc21)N1CCN(c2ccccc2F)CC1 -6.27%
CCCCC(CC)CNC(=O)CN1C(=O)CSc2ccc(S(=O)(=O)N3CCOCC3)cc21 (stereo unspecified) -16.2%
CCOc1ccccc1N(CC)C(=O)c1cc2c(=O)[nH]c3ccc(C)cc3c2s1 -80%
COC(=O)c1scc(-c2ccc(C)cc2)c1S(=O)(=O)Nc1cc(OC)c(OC)c(OC)c1 -3.4%
COc1ccc(CNC(=O)c2c3c(nc4ccccc24)C(=O)N(C2CCCCC2)C3)c(OC)c1 -21.7%
CC(=O)c1ccc(NC(=O)c2cc(S(=O)(=O)N3CCCCCC3)cn2C)cc1 -13.1%
Cc1ccc(NC(=O)CCCc2nnc3n(C)c(=O)c4sccc4n23)cc1F -13%
COc1ccc(-c2nc3c(c(SCC(=O)Nc4ccccc4F)n2)Cc2cc(C)ccc2O3)cc1 15.3%
CC(O)Cn1cnc2c1c(=O)n(C)c(=O)n2C (stereo unspecified) -6.89%
NC(=O)C1(N2CCCCC2)CCN(C(=O)Nc2ccc(F)cc2)CC1 1.65%
CCc1ccccc1NC(=O)CN1C(=O)c2ccccc2Sc2ncccc21 -25.9%
O=C(CNC(=O)c1ccccc1)OCc1cc(=O)n2ccsc2n1 -2.73%
Cc1ccc(C)c(N2CCN(C(=O)C3CCCN(Cc4nc(-c5cccc(Cl)c5)oc4C)C3)CC2)c1 (stereo unspecified) -7.24%
CCCn1cc(S(=O)(=O)c2ccc(CC)cc2)c(=O)c2cc(F)c(N(CC)CC)cc21 -6.57%
CCOc1cccc(NC(=O)CSc2ncc(-c3ccccc3)[nH]2)c1 19.8%
CCOc1ccc(CNC(=O)c2cc(=O)[nH]c3ccc(S(=O)(=O)N4CCCC4)cc23)cc1 -8.43%
COc1ccc(Cl)cc1CNCCSc1nnnn1C -6.1%
CCOc1cccc2sc(N3CCN(C(=O)C4CC4)CC3)nc12 8.95%
Cc1cccc(N2CCN(C(=O)c3ccc4c(c3)N(Cc3cccc(Cl)c3)C(=O)c3ccccc3S4=O)CC2C)c1 (stereo unspecified) -24.3%
Cc1cc(C)cc(NC(=O)CCCn2c3ccccc3c(=O)c3ccccc32)c1 -1.96% [at 11.5 µM, percent change from vehicle, -100% = no light]
CC(=O)c1ccc(N2CCN(C(=O)CCCCn3c(=O)[nH]c4ccccc4c3=O)CC2)cc1 -13%
Cc1ccc(NC(=O)CCC(=O)N2Cc3ccccc3Oc3ncccc32)cc1F -16.8%
O=C(NCc1ccc(F)cc1)c1ccc2nc(N3CCCCC3)sc2c1 -65.3%
Cc1cccc(Cn2c(=O)n(CCC(=O)NCCc3ccc(Cl)cc3)c(=O)c3sccc32)c1 -11.1%
CCOc1ccc(NC(=O)c2ccc3c(c2)CCN3S(=O)(=O)c2ccc(Cl)cc2)cc1 -0.925%
Cc1cc(-c2ccc(C)c(S(=O)(=O)NCC3CCN(Cc4ccc(F)cc4)CC3)c2)on1 -18.8%
O=C(O)c1c(CNCc2cccc(F)c2)c2ccccc2n1Cc1ccccc1 -15.3%
O=C(NCC(c1ccc2c(c1)OCO2)N1CCOCC1)C(=O)Nc1cccc(Cl)c1 (stereo unspecified) -30.7%
COc1ccc(OC)c(CNC(=O)c2nn(C)c3c2CSc2ccccc2-3)c1 -13.8%
Fc1cccc(Cl)c1Cn1c(-c2cccs2)nc2ccccc21 -33.5%
Cc1cccc(NC(=O)C(=O)NCC(c2cccnc2)N2CCc3ccccc3C2)c1C (stereo unspecified) -17.2%
CCOc1ccc(NC(=O)c2ccc(F)c(S(=O)(=O)N(CC)Cc3ccccc3)c2)cc1 -39.8%
CCOC(=O)c1scc(-c2ccc(C)cc2)c1S(=O)(=O)N1CCN(c2ccccc2F)CC1 -14.9%
O=C(CCC1N=C2c3ccccc3N=C(SCc3cccc(F)c3)N2C1=O)NCc1cccs1 (stereo unspecified) -22%
Cc1ccc(Cl)cc1N1CCN(C(=O)CCNS(=O)(=O)c2ccc3c(c2)CCN3C(=O)C2CC2)CC1 -38.1%
Cc1ccc(NC(=O)NCc2cccn2Cc2ccccc2)c(C)c1 -8.53%
CCCCCSc1ncnc2c1sc1nc(N3CCOCC3)c3c(c12)CCCC3 1.77%
CCC(C)NC(=O)Cn1c(=O)n(-c2ccc(C)c(C)c2)c(=O)c2c3c(sc21)CCCCC3 (stereo unspecified) -9.13%
COc1ccc(OC)c(NC(=O)c2cc(S(=O)(=O)NCCc3ccc(Cl)cc3)ccc2F)c1 -27%
CCOc1ccc(OCC)c(NC(=O)c2ccc(-c3ccccc3)s2)c1 -1.04%
Cc1nc2nc(SCC(=O)NC3CCC(C)CC3)nn2c(C)c1Cc1ccccc1 (stereo unspecified) -0.126%
CCCCc1nn2c(=O)cc(COC(=O)C3CCCCC3)nc2s1 8.04%
O=C(OOC(=O)c1ccccc1)c1ccccc1 -2.39%
COC(=O)c1ccc(-c2nc3cc(NC(C)=O)ccc3o2)cc1 16.3%
CCOc1ccc(CCNC(=O)c2sc3ncccc3c2-n2cccc2)cc1OCC -15%
Nc1cc(=O)[nH]c(N)n1 -4.72%
Cc1ccc(N2CC(NC(=O)c3ccc(S(=O)(=O)N4CCCC4)cc3)CC2=O)cc1C (stereo unspecified) -18.1%
